# Measured values: paper PMC9911399, “Two distinct binding modes provide the RNA-binding protein RbFox with extraordinary sequence specificity”
# Positions count from the first letter of the chain named. Some of the results follow.
# T1: RBFOX1 RRM RbFoxmut (Fox-RRM*) (Homo sapiens, UniProt Q9NWB1 109-208, R118D;E147R;N151S;E152T)
# T1 sequence: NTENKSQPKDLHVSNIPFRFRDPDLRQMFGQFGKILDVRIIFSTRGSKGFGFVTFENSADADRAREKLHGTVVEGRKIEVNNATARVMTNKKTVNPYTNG
# B1: ACCGGAC (DNA:RNA)
# RNA: GGGAGACCGGAAUUCAGAUUGUCCACCGGACUUAAAUCCCGUCGUAGCCACCA
# DNA 1: CAATCTGAATTCCGGTCTCCC
# DNA 2: TGGTGGCTACGACGGGATT
# B2: GUAGCUA (DNA:RNA)
# RNA: B1 RNA with A25G, C26U, C27A, G29C, A30U, C31A
# DNA 1: CAATCTGAATTCCGGTCTCCC
# DNA 2: TGGTGGCTACGACGGGATT
# B3: UAGAUUG (DNA:RNA)
# RNA: GGGAGACCGGAAUUCAGAUUGUCCUAGAUUGUUAAAUCCCGUCGUAGCCACCA
# DNA 1: CAATCTGAATTCCGGTCTCCC
# DNA 2: TGGTGGCTACGACGGGATT
# B4: GUACCAC (DNA:RNA)
# RNA: B1 RNA with A25G, C26U, C27A, G28C, G29C
# DNA 1: CAATCTGAATTCCGGTCTCCC
# DNA 2: TGGTGGCTACGACGGGATT
# B5: UAACCUG (DNA:RNA)
# RNA: B3 RNA with G27A, A28C, U29C
# DNA 1: CAATCTGAATTCCGGTCTCCC
# DNA 2: TGGTGGCTACGACGGGATT
# B6: UAGCAAG (DNA:RNA)
# RNA: B3 RNA with A28C, U29A, U30A
# DNA 1: CAATCTGAATTCCGGTCTCCC
# DNA 2: TGGTGGCTACGACGGGATT
# B7: ACGUUGC (DNA:RNA)
# RNA: B1 RNA with C27G, G28U, G29U, A30G
# DNA 1: CAATCTGAATTCCGGTCTCCC
# DNA 2: TGGTGGCTACGACGGGATT
# B8: AGGCUCU (DNA:RNA)
# RNA: B3 RNA with U25A, A26G, A28C, U30C, G31U
# DNA 1: CAATCTGAATTCCGGTCTCCC
# DNA 2: TGGTGGCTACGACGGGATT
# B9: AACCCUA (DNA:RNA)
# RNA: B1 RNA with C26A, G28C, G29C, A30U, C31A
# DNA 1: CAATCTGAATTCCGGTCTCCC
# DNA 2: TGGTGGCTACGACGGGATT
# B10: UAGCUAU (DNA:RNA)
# RNA: B3 RNA with A28C, U30A, G31U
# DNA 1: CAATCTGAATTCCGGTCTCCC
# DNA 2: TGGTGGCTACGACGGGATT
# B11: CGCCUUC (DNA:RNA)
# RNA: B1 RNA with A25C, C26G, G28C, G29U, A30U
# DNA 1: CAATCTGAATTCCGGTCTCCC
# DNA 2: TGGTGGCTACGACGGGATT
# B12: CCAUUUC (DNA:RNA)
# RNA: B1 RNA with A25C, C27A, G28U, G29U, A30U
# DNA 1: CAATCTGAATTCCGGTCTCCC
# DNA 2: TGGTGGCTACGACGGGATT
# B13: GUCGUAU (DNA:RNA)
# RNA: B1 RNA with A25G, C26U, G29U, C31U
# DNA 1: CAATCTGAATTCCGGTCTCCC
# DNA 2: TGGTGGCTACGACGGGATT
# B14: GAAUUCU (DNA:RNA)
# RNA: B3 RNA with U25G, G27A, A28U, U30C, G31U
# DNA 1: CAATCTGAATTCCGGTCTCCC
# DNA 2: TGGTGGCTACGACGGGATT
# B15: CUGCGUA (DNA:RNA)
# RNA: B3 RNA with U25C, A26U, A28C, U29G, G31A
# DNA 1: CAATCTGAATTCCGGTCTCCC
# DNA 2: TGGTGGCTACGACGGGATT
# B16: CUCCCGU (DNA:RNA)
# RNA: B1 RNA with A25C, C26U, G28C, G29C, A30G, C31U
# DNA 1: CAATCTGAATTCCGGTCTCCC
# DNA 2: TGGTGGCTACGACGGGATT
# B17: AUACGAC (DNA:RNA)
# RNA: B1 RNA with C26U, C27A, G28C
# DNA 1: CAATCTGAATTCCGGTCTCCC
# DNA 2: TGGTGGCTACGACGGGATT
# B18: GGAGCGC (DNA:RNA)
# RNA: B1 RNA with A25G, C26G, C27A, G29C, A30G
# DNA 1: CAATCTGAATTCCGGTCTCCC
# DNA 2: TGGTGGCTACGACGGGATT
# B19: AUCACGU (DNA:RNA)
# RNA: B1 RNA with C26U, G28A, G29C, A30G, C31U
# DNA 1: CAATCTGAATTCCGGTCTCCC
# DNA 2: TGGTGGCTACGACGGGATT
# B20: GCCCAGC (DNA:RNA)
# RNA: B1 RNA with A25G, G28C, G29A, A30G
# DNA 1: CAATCTGAATTCCGGTCTCCC
# DNA 2: TGGTGGCTACGACGGGATT
# B21: UUAAGCC (DNA:RNA)
# RNA: B1 RNA with A25U, C26U, C27A, G28A, A30C
# DNA 1: CAATCTGAATTCCGGTCTCCC
# DNA 2: TGGTGGCTACGACGGGATT
# B22: CCCCCGA (DNA:RNA)
# RNA: B1 RNA with A25C, G28C, G29C, A30G, C31A
# DNA 1: CAATCTGAATTCCGGTCTCCC
# DNA 2: TGGTGGCTACGACGGGATT
# B23: ACGACCA (DNA:RNA)
# RNA: B1 RNA with C27G, G28A, G29C, A30C, C31A
# DNA 1: CAATCTGAATTCCGGTCTCCC
# DNA 2: TGGTGGCTACGACGGGATT
# B24: CUGAUCU (DNA:RNA)
# RNA: B3 RNA with U25C, A26U, U30C, G31U
# DNA 1: CAATCTGAATTCCGGTCTCCC
# DNA 2: TGGTGGCTACGACGGGATT
# B25: GUUGGUC (DNA:RNA)
# RNA: B1 RNA with A25G, C26U, C27U, A30U
# DNA 1: CAATCTGAATTCCGGTCTCCC
# DNA 2: TGGTGGCTACGACGGGATT
# B26: GUCGGCU (DNA:RNA)
# RNA: B1 RNA with A25G, C26U, A30C, C31U
# DNA 1: CAATCTGAATTCCGGTCTCCC
# DNA 2: TGGTGGCTACGACGGGATT
# B27: CGUGGGA (DNA:RNA)
# RNA: B1 RNA with A25C, C26G, C27U, A30G, C31A
# DNA 1: CAATCTGAATTCCGGTCTCCC
# DNA 2: TGGTGGCTACGACGGGATT
# B28: GCAAGAU (DNA:RNA)
# RNA: B1 RNA with A25G, C27A, G28A, C31U
# DNA 1: CAATCTGAATTCCGGTCTCCC
# DNA 2: TGGTGGCTACGACGGGATT
# B29: GCUCCGG (DNA:RNA)
# RNA: B1 RNA with A25G, C27U, G28C, G29C, A30G, C31G
# DNA 1: CAATCTGAATTCCGGTCTCCC
# DNA 2: TGGTGGCTACGACGGGATT
# B30: GGGCCCC (DNA:RNA)
# RNA: B1 RNA with A25G, C26G, C27G, G28C, G29C, A30C
# DNA 1: CAATCTGAATTCCGGTCTCCC
# DNA 2: TGGTGGCTACGACGGGATT
# B31: ACCCGCA (DNA:RNA)
# RNA: B1 RNA with G28C, A30C, C31A
# DNA 1: CAATCTGAATTCCGGTCTCCC
# DNA 2: TGGTGGCTACGACGGGATT
# Molecular target: T1, RBFOX1 RRM RbFoxmut (Fox-RRM*)
# Assay: EMSA; HiTS-Eq, 1 nM pool, 10 min; buffer printed only for the single-RNA assays: 10 mM Tris pH 7.5, 150 mM NaCl, 3.4 mM EDTA, 0.001% NP-40, 30 C
# Settings: tags: His6 N-terminal (pET28a); label: 5' 32P
# Procedure, shortened: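 These values rest on relative association constants, computed from read-count changes of each RNA species versus the control reaction and normalised to the cognate motif. Reads came from free RNA recovered by 8% native PAGE after purified RbFox RRM (wild type or mutant) at increasing concentrations was equilibrated for 10 min in 50 µL with 1 nM of a 5′-radiolabelled pool with 7 randomized nucleotides and DNA-annealed flanks.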
row,Binder,binding signal
1,B1,0.0839 KA relative to UGCAUGU
2,B2,0.127 KA relative to UGCAUGU
3,B3,0.194 KA relative to UGCAUGU
4,B4,0.0859 KA relative to UGCAUGU
5,B5,0.0476 KA relative to UGCAUGU
6,B6,0.0837 KA relative to UGCAUGU
7,B7,0.151 KA relative to UGCAUGU
8,B8,0.0577 KA relative to UGCAUGU
9,B9,0.0958 KA relative to UGCAUGU
10,B10,0.0941 KA relative to UGCAUGU
11,B11,0.104 KA relative to UGCAUGU
12,B12,0.0493 KA relative to UGCAUGU
13,B13,0.145 KA relative to UGCAUGU
14,B14,0.0477 KA relative to UGCAUGU
15,B15,0.186 KA relative to UGCAUGU
16,B16,0.047 KA relative to UGCAUGU

row,Binder,binding signal
1,B17,0.0716 KA relative to UGCAUGU
2,B18,0.088 KA relative to UGCAUGU
3,B19,0.121 KA relative to UGCAUGU
4,B20,0.0724 KA relative to UGCAUGU
5,B21,0.106 KA relative to UGCAUGU
6,B22,0.106 KA relative to UGCAUGU
7,B23,0.0707 KA relative to UGCAUGU
8,B24,0.0527 KA relative to UGCAUGU
9,B25,0.164 KA relative to UGCAUGU
10,B26,0.116 KA relative to UGCAUGU
11,B27,0.0817 KA relative to UGCAUGU
12,B28,0.0667 KA relative to UGCAUGU
13,B29,0.0646 KA relative to UGCAUGU
14,B30,0.0574 KA relative to UGCAUGU
15,B31,0.101 KA relative to UGCAUGU
